Reference: PubChem BioAssay AID1508623 (National Center for Advancing Translational Sciences (NCATS), 2021)
The campaign covered roughly 48,000 compounds. About 450 (0.94%) were called active. Another 19% or so got no clear call; they are omitted. Calls come from the whole dose curve; as a rule, active = well fitted inhibition curve with a large enough effect; inconclusive = small, poorly fitted or top-dose-only effect; inactive = no such curve, though single readings can be large or run the other way. Some of the results follow.

Assay: Primary qHTS for Identification of Small Molecule Inhibitors of Huntingtin Promoter Activity; note: nearly all actives have a fitted effect of over 50% in size
Conditions: HEK293 HTT promoter firefly luciferase reporter (activity 0% = vehicle and -100% = no light), 24 h; series mostly up to 57.5 µM; activity change, negative = inhibition: at the top concentration
Summary of the method: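 HEK293 Fluc reporter, 2,500 cells/well, 24 h pre-culture; cpds up to 57.5 uM final, 24 h 37 degrees C; Dual-Glo, 10 min RT; normalized vehicle = 0%, zero RLU = -100%.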

Activity change, negative = inhibition, inactive:
Cc1ccc(N2CC(NC(=O)C3CCCC3)CC2=O)cc1C (centres undefined) -25.1%
O=C(COc1ccccc1Cl)Nc1nc(-c2ccc(F)cc2)ns1 -1.42%
CCN1CCN(c2cc(C)c3cc(NC(=O)/C=C/c4ccc(OCCC(C)C)cc4)ccc3n2)CC1 -4.15%
Cc1ccc(NC(=O)CSc2nc(C3CCCC3)nc3c2c(=O)n(C)c(=O)n3C)c(C)c1 13.2%
CCc1nnc(SCc2nc(-c3cccc(C)c3)oc2C)c2cc3sc(C)cc3n12 6.99%
COc1ccc(C(=O)Nc2cc(NC(=O)c3ccco3)ccc2OC)cc1Cl -4.18%
CCOC(=O)c1c(-c2ccccc2)oc2cc(Br)c(OCc3ccccc3)cc12 -7.72%
CCn1c(=N)c(C(=O)NC2CCCC2)cc2c(=O)n3cc(C)ccc3nc21 18.2%
Cc1ccc(OCCCCn2nnc3sc4c(c3c2=O)CCC(C)C4)cc1 (centres undefined) 13.3%
Cc1ccc(NC(=O)C2CCCN(S(=O)(=O)c3cccc4nsnc34)C2)c(C)c1 (centres undefined) -14.7%
CCOc1ccc(C(=O)NCCc2csc(-c3cccnc3)n2)cc1 -8.15%
Cc1ccc(Cl)cc1Nc1nn2c(=O)c3ccc(C(=O)NC4CCC(C)CC4)cc3nc2s1 (centres undefined) -6.18%
CN1CCN(C2(CNC(=O)COc3ccc(C(C)(C)C)cc3)CCCCC2)CC1 -24.1%
O=C(Cn1c(=O)n(-c2ccc(F)c(Cl)c2)c(=O)c2sc3ccccc3c21)NC1CCCCC1 -6%
COc1cc(C[C@@H](CO)[C@H](CO)Cc2ccc(O)c(OC)c2)ccc1O 355%
CC(C)c1ccc(CNCCSc2nnnn2-c2ccccc2)cc1 -19%
CCc1ccc(NC(=O)Cn2c(=O)n(CCC(=O)NCCc3ccc(OC)c(OC)c3)c(=O)c3ccccc32)cc1 -10.9%
Cc1cc(C)cc(NC(=O)C2CCN(c3nc4ccccc4nc3C(F)(F)F)CC2)c1 -14.4%
Cc1ccc2c(=O)cc(C(=O)Nc3sc4c(c3C(=O)NCc3ccccc3)CCCC4)oc2c1C 6.11%
CCCCCCOc1ccc(C2C(=O)N(C3CCCCC3)CC(=O)N2CCCC)cc1 (centres undefined) -15.7%
CCOc1cccc(C(=O)Nc2cc(-c3ccc(C)cc3)no2)c1 15.5%
Cc1noc(Cn2c(=O)c3cc4c(cc3n(CC(=O)Nc3ccccc3Br)c2=O)OCO4)n1 -11.4%
O=C(Nc1sc2c(c1C(=O)N1CCCCC1)CCCC2)c1ccccc1Cl -21.6%
CN(C)c1ccc(CNC(=O)CCS(=O)(=O)c2ccc3c(c2)oc(=O)n3C)cc1 -2.62%
CCCS(=O)(=O)N1CCCC(C(=O)NCCOC)C1 (centres undefined) -17.2%
CCOc1ccc(NCc2cccn2-c2nnc(N3CCC(C(=O)NCCOC)CC3)s2)cc1 -25.9%
C=C(C)Cn1c(=O)c2c(nc3n2CCN3c2ccc(F)cc2)n(C)c1=O 4.61%
Cc1cc(=O)n2nc(N3CCC(C(=O)NCc4ccc(F)cc4)CC3)sc2n1 -8.21%
COc1ccccc1/C=C/c1nc(C#N)c(NCCc2ccccc2)o1 -10.5%
CCOc1ccc(-c2nc(Cn3ccn4nc(-c5ccc(OCC)c(Cl)c5)cc4c3=O)c(C)o2)cc1 -8.33%
Cc1ccccc1Nc1cc(C(=O)NCc2cccs2)c2ccccc2n1 19.8%
COc1ccc(C)cc1N(C)C(=O)c1c2c(nc3ccccc13)C(=O)N(C1CCCCC1)C2 -27.5%
Cc1cccc(OCCn2c(SCC(=O)O)nc3ccccc32)c1 -9.38%
COc1ccc(-c2nc3scc(CCNS(=O)(=O)c4ccc(NC(C)=O)cc4)n3n2)cc1 -24.5%
CCOC(=O)c1ccc(NC2SC(=O)N(Cc3cccc(C(=O)O)c3)C2=O)cc1 (centres undefined) 51.8%
COc1cc2nc(SCC(=O)Nc3ccccc3F)n3nc(-c4ccccc4)nc3c2cc1OC -2.16%
CCOc1ccc(Cn2c(CNS(=O)(=O)c3cccc(Cl)c3)nc3cccnc32)cc1 -18%
CCc1ccc(NC(=O)CSc2nc3c(sc4ccccc43)c(=O)n2CCCOC(C)C)cc1 -11.4%
COc1ccccc1C(=O)N1CCN(Cc2cc(=O)oc3cc(C)ccc23)CC1 -15.8%
COc1ccc(-c2nc3ccc(NS(=O)(=O)c4ccc(Cl)cc4)cc3o2)cc1 -20.4%
Cc1ccc(CNC(=O)c2ccc(CSCc3ccccc3C)o2)cc1 -16.3%
CCCCN(CC)C(=O)Cn1ncc2c3ccccc3n(CCC)c2c1=O -12.7%
COc1ccc(-n2cc(C(=O)NCc3ccccc3Cl)c3ccccc3c2=O)cc1 -8.35%
Cn1c(=O)[nH]c2cc(-c3noc(-c4cccc(Cl)c4)n3)ccc21 3.12%
CCCNC(=O)Cn1nc(-c2ccc(F)cc2)c2cnc3ccc(F)cc3c21 -2.01%
CCOc1cccc(C(=O)N(Cc2ccc(CC)cc2)C2CCS(=O)(=O)C2)c1 (centres undefined) -15.7%
CCC(C)NC(=O)c1cccc(NC(=O)c2nsc3ccccc23)c1 (centres undefined) 45.8%
CC(=O)C1=C(c2ccc(Cl)cc2)N(C(C)=O)n2c(nnc2C2CCCCC2)S1 -38.8%
Cc1ccc(Cl)cc1N(C)C(=O)c1cn(C2CCCCC2)c(=O)c2c1c1ccccc1n2C -3.97%
Cc1ccc2c(c1)N(CCC(=O)NCc1ccccc1Cl)C(=O)CO2 -13.4%
O=c1c2oc3ccccc3c2n(Cc2ccccc2F)c(=O)n1Cc1ccccc1 -22.4%
Cc1ccc2onc(CC(=O)Nc3ccc(C(C)C)cc3)c2c1 -14.9%
COc1cccc(CNC(=O)c2cc3c(=O)oc4ccc(C)cc4c3s2)c1 0.606%
COc1ccc(-c2nnc(SCc3cccc(Cl)c3)o2)cc1 -8.73%
CC(=O)N1CCC(N(Cc2ccc(C)o2)C(=O)Nc2ccc(C)cc2)CC1 2.93%
Cn1c(=O)[nH]c(=O)c2c1nc(NCCc1ccccc1)n2Cc1ccc(F)cc1 -19.7%
Cc1cc(NC(=O)Nc2nnc(N(C)Cc3ccccc3)s2)ccc1Br -7.75%
Cc1ccc(O)c(NC(=O)c2cc(-c3ccccc3O)no2)c1 40.8%
CCOc1ccc2nc(NC(=O)c3nc(SC)ncc3Cl)sc2c1 0.118%
CCOc1ccccc1NC(=O)Cc1noc2ccc(C)cc12 1.56%
COc1ccc2nc(N(Cc3cccnc3)C(=O)C3CCCCC3)sc2c1 -24.2%
COc1cccc(C2C(C(=O)Nc3ccc(C)cc3C)=C(C)Nc3nc4ccccc4n32)c1OC (centres undefined) -6.14%
CC1(C)C(=O)N(CC(=O)Nc2ccc(Br)cc2F)c2ccccc21 -34%
CCOC(=O)c1cc(S(=O)(=O)N2CCN(c3ccccc3F)CC2)[nH]n1 -8.85%
CC(NC(=O)C1CCN(c2nc3ccccc3nc2C(F)(F)F)CC1)c1ccccc1 (centres undefined) -39.2%
CCCCNC(=O)c1cccc(-n2c(C)nc3cccnc32)c1 -15.5%
Fc1ccc2c(c1)-c1nc(-c3ccccc3)cc(-c3ccccc3)c1CO2 -6.13%
CCOc1cc(C(=O)N2CCn3c4c(c5cc(C)ccc53)CCCC42)cc(OCC)c1OCC (centres undefined) -0.442%
Cc1cccc(N(C)c2ccc3cc(S(=O)(=O)N4CCCC4)ccc3n2)c1 1.73%
Cc1ccc2c(c1)c(N1CCCC1=O)c(C(=O)Nc1ccc(F)cc1F)n2C -31.6%
CCC(=O)N1CCc2cc(S(=O)(=O)NC(Cc3ccccc3)C(=O)Nc3cccc(OC)c3)ccc21 (centres undefined) -11%
Cc1ccc(-c2nnc3c4ccccc4c(C)nn23)cc1NC(=O)c1ccccc1Cl -1.26%
Cc1ccc(S(=O)(=O)c2nnn3c2nc(N2CCCC2)c2sccc23)cc1 -3.86%
COc1cccc(N2CCN(c3ncnc4onc(-c5ccc(F)cc5)c34)CC2)c1 1.69%
Cc1ccc(C)c(NC(=O)CSC2=Nc3ccccc3N=C(c3ccc(F)cc3)C2)c1 -1.3%
CCOC(=O)c1cc(S(=O)(=O)N2CCN(c3ccc(C)cc3C)CC2)[nH]n1 -1.71%
O=C(CCCCCn1c(=O)[nH]c2ccccc2c1=O)NCc1ccccc1 5.11%
COC(=O)c1ccc(O)c2ncc(-c3ccc(C(=O)N4CCN(C)CC4)cc3)cc12 -16.9%
CN(C)c1ccc(NC(=O)Cn2cc(S(=O)(=O)Cc3cccc(Cl)c3)c3ccccc32)cc1 -28.6%
CC(=O)c1cc(-c2ccccc2)n(CCC(=O)Nc2ccc(C)cc2C)c1C -24.3%
COc1ccc(N2CC(NC(=O)c3cc4ccccc4o3)CC2=O)cc1 (centres undefined) 3.87%
Cc1cc(C(=O)NCc2ccc(Cl)cc2)c2c(C)nn(-c3ccccc3)c2n1 0.229%
COC(=O)c1c(NC(=O)Nc2ccc(Cl)cc2)sc(C)c1C -28.4%
COc1ccccc1CNC(=O)CCC1N=C2c3ccccc3N=C(SCc3ccc(C)cc3)N2C1=O (centres undefined) 17.6%
Cc1ccc2c(c1)N(C(=O)Nc1cccc(C)c1C)CCO2 -22.8%
CS(=O)(=O)N1CCc2cc(C(=O)N3CCN(c4ccccc4)CC3)ccc21 -20.2%
CCCc1nnc(NC(=O)c2cc(=O)c3cc(Cl)ccc3o2)s1 4.53%
COc1ccccc1NC(=O)NCc1cccn1Cc1ccccc1 3.2%
Cc1cc(Br)ccc1NC(=O)c1ccc(NS(=O)(=O)c2c(C)noc2C)cc1 -5.22%
COc1ccc(NC(=O)Cn2cnc3ccc(S(=O)(=O)N4CCC(C)CC4)cc3c2=O)cc1OC -21.5%
COc1ccc(-c2cnn3c(C)cc(C)nc23)cc1OC 6.64%
CCOc1ccc(-c2nc(SCC(=O)NC3CCCC3)c(-c3ccccc3)[nH]2)cc1OC -10.4%
O=C(CSc1nc(-c2cccs2)nc2cc(=O)[nH]n12)Nc1ccccc1F -3.01%
CCCOc1ccc(C(=O)Nc2ccc(Cl)c(-c3nc4ncccc4o3)c2)cc1 5.54%
CCOc1ccc(CCNC(=O)CSc2cc(=O)n(C)c3cc(Cl)ccc23)cc1OCC -16.2%
CSc1ccc(CCNC(=O)CN2C(=O)c3cccnc3Oc3ccc(Cl)cc32)cc1 -13.1%
Nc1c(-c2nc(-c3ccc4c(c3)OCO4)cs2)c2ccccn2c1C(=O)c1ccccc1 -21.3%
CCC(C(=O)Nc1ccccc1OC)n1nc(C)c2sc3ccccc3c2c1=O (centres undefined) -27.6%
Cc1ccc(C)c(OCC(=O)Nc2ccc(S(=O)(=O)Nc3onc(C)c3C)cc2)c1C -6.14%
